Source: patent US9931327B2, “Derivatives of 1-phenyl-2-pyridinyl alkyl alcohols as phosphodiesterase inhibitors” (Chiesi Farmaceutici S.p.A., priority 2011, dated 2018)
Where a name gives a salt, the structure may show the parent alone. Some results were stated once for a whole list of compounds, not compound by compound.

system: T1, PDE4; assay: In vitro determination of PDE4 inhibitory activity in the cell free assay (cAMP disappearance, U937 cell lysate supernatant); type: biochemical; conditions: U937 human monocytic cell lysate supernatant, compounds of the invention, read-out: PDE4 inhibition (IC50, 50% inhibition of cAMP disappearance)
T1 construct: PDE4 activity was determined in U937 human monocytic supernatants cells lysate

`CS(=O)(=O)N(CCN1CCOCC1)c1ccc(S(=O)(=O)N2CCSC2C(=O)O[C@@H](Cc2c(Cl)c[n+]([O-])cc2Cl)c2ccc(OC(F)F)c(OCC3CC3)c2)cc1` (stereo partly drawn) [Compound 143, 3,5-dichloro-4-((2S)-2-(3-(cyclopropylmethoxy)-4-(difluoromethoxy)phenyl)-2-(3-(4-(N-(2-morpholinoethyl)methylsulfonamido)phenylsulfonyl)thiazolidine-2-carbonyloxy)ethyl)pyridine 1-oxide formate] and `Nc1ccc(S(=O)(=O)N2CCS[C@H]2C(=O)O[C@@H](Cc2c(Cl)c[n+]([O-])cc2Cl)c2ccc(OC(F)F)c(OCC3CC3)c2)cc1` [Compound 150, 4-((S)-2-((S)-3-(4-aminophenylsulfonyl)thiazolidine-2-carbonyloxy)-2-(3-(cyclopropylmethoxy)-4-(difluoromethoxy)phenyl)ethyl)-3,5-dichloropyridine 1-oxide] cannot be ordered by IC50: under 0.1 nM for the first, under 0.1 nM for the second.

First: O=C(CN1CCSC1C(=O)O[C@@H](Cc1c(Cl)c[n+]([O-])cc1Cl)c1ccc(OC(F)F)c(OCC2CC2)c1)c1cccs1 (stereo partly drawn) [Compound 144, 3,5-dichloro-4-((2S)-2-(3-(cyclopropylmethoxy)-4-(difluoromethoxy)phenyl)-2-(3-(2-oxo-2-(thiophen-2-yl)ethyl)thiazolidine-2-carbonyloxy)ethyl)pyridine 1-oxide]
Second: O=C(O[C@@H](Cc1c(Cl)c[n+]([O-])cc1Cl)c1ccc(OC(F)F)c(OCC2CC2)c1)[C@@H]1SCCN1C(=O)c1ccccc1 [Compound 186, 4-((S)-2-((S)-3-benzoylthiazolidine-2-carbonyloxy)-2-(3-(cyclopropylmethoxy)-4-(difluoromethoxy)phenyl)ethyl)-3,5-dichloropyridine 1-oxide]
The IC50 of the first is higher: 0.1 to 1 nM for the first, under 0.1 nM for the second. The second is the more potent here.

`CN(C)C(=O)c1cccc(C(=O)N2CCC[C@@H]2C(=O)O[C@@H](Cc2c(Cl)c[n+]([O-])cc2Cl)c2ccc(OC(F)F)c(OCC3CC3)c2)c1` [Compound 185, 3,5-dichloro-4-((S)-2-(3-(cyclopropylmethoxy)-4-(difluoromethoxy)phenyl)-2-((R)-1-(3-(dimethylcarbamoyl)benzoyl)pyrrolidine-2-carbonyloxy)ethyl)pyridine 1-oxide] and `CN(C)C(=O)c1cccc(C(=O)N2CCC[C@H]2CC(=O)O[C@@H](Cc2c(Cl)c[n+]([O-])cc2Cl)c2ccc(OC(F)F)c(OCC3CC3)c2)c1` [Compound 195, 3,5-dichloro-4-((S)-2-(3-(cyclopropylmethoxy)-4-(difluoromethoxy)phenyl)-2-(2-((S)-1-(3-(dimethylcarbamoyl)benzoyl)pyrrolidin-2-yl)acetoxy)ethyl)pyridine 1-oxide] cannot be ordered by IC50: under 0.1 nM for the first, under 0.1 nM for the second.

`O=C(O[C@@H](Cc1c(Cl)c[n+]([O-])cc1Cl)c1ccc(OC(F)F)c(OCC2CC2)c1)[C@@H]1SCCN1C(=O)CC1CC1` [Compound 189, 3,5-dichloro-4-((S)-2-((S)-3-(2-cyclopropylacetyl)thiazolidine-2-carbonyloxy)-2-(3-(cyclopropylmethoxy)-4-(difluoromethoxy)phenyl)ethyl)pyridine 1-oxide] and `O=C(O[C@@H](Cc1c(Cl)c[n+]([O-])cc1Cl)c1ccc(OC(F)F)c(OCC2CC2)c1)[C@@H]1SCCN1C(=O)CCN1CCOCC1` [Compound 191, 3,5-dichloro-4-((S)-2-(3-(cyclopropylmethoxy)-4-(difluoromethoxy)phenyl)-2-((S)-3-(3-morpholinopropanoyl)thiazolidine-2-carbonyloxy)ethyl)pyridine 1-oxide] cannot be ordered by IC50: under 0.1 nM for the first, under 0.1 nM for the second.

First: O=C(O[C@@H](Cc1c(Cl)c[n+]([O-])cc1Cl)c1ccc(OC(F)F)c(OCC2CC2)c1)[C@@H]1SCCN1C(=O)CCS(=O)(=O)c1ccccc1 [Compound 190, 3,5-dichloro-4-((S)-2-(3-(cyclopropylmethoxy)-4-(difluoromethoxy)phenyl)-2-((S)-3-(3-(phenylsulfonyl)propanoyl)thiazolidine-2-carbonyloxy)ethyl)pyridine 1-oxide]
Second: N#Cc1ccccc1S(=O)(=O)N1CCS[C@H]1C(=O)O[C@@H](Cc1c(Cl)c[n+]([O-])cc1Cl)c1ccc(OC(F)F)c(OCC2CC2)c1 [Compound 200, 3,5-dichloro-4-((S)-2-((S)-3-(2-cyanophenylsulfonyl)thiazolidine-2-carbonyloxy)-2-(3-(cyclopropylmethoxy)-4-(difluoromethoxy)phenyl)ethyl)pyridine 1-oxide]
The IC50 of the first is lower: under 0.1 nM for the first, 0.1 to 1 nM for the second. The first is the more potent here.

`CN(C)C(=O)c1cccc(CC(=O)N2CCS[C@H]2C(=O)O[C@@H](Cc2c(Cl)c[n+]([O-])cc2Cl)c2ccc(OC(F)F)c(OCC3CC3)c2)c1` [Compound 198, 3,5-dichloro-4-((S)-2-(3-(cyclopropylmethoxy)-4-(difluoro-methoxy)phenyl)-2-((S)-3-(2-(3-(dimethylcarbamoyl)phenyl)acetyl)-thiazolidine-2-carbonyloxy)ethyl)pyridine 1-oxide] and `N#Cc1cccc(S(=O)(=O)N2CCS[C@H]2C(=O)O[C@@H](Cc2c(Cl)c[n+]([O-])cc2Cl)c2ccc(OC(F)F)c(OCC3CC3)c2)c1` [Compound 207, 3,5-dichloro-4-((S)-2-((S)-3-(3-cyanophenylsulfonyl)thiazolidine-2-carbonyloxy)-2-(3-(cyclopropylmethoxy)-4-(difluoromethoxy)phenyl)ethyl)pyridine 1-oxide] cannot be ordered by IC50: under 0.1 nM for the first, under 0.1 nM for the second.

`O=C(O[C@@H](Cc1c(Cl)c[n+]([O-])cc1Cl)c1ccc(OC(F)F)c(OCC2CC2)c1)[C@@H]1SCCN1S(=O)(=O)c1ccc2c(c1)OCCO2` [Compound 201, 3,5-dichloro-4-((S)-2-(3-(cyclopropylmethoxy)-4-(difluoromethoxy)phenyl)-2-((S)-3-(2,3-dihydrobenzo[b][1,4]dioxin-6-ylsulfonyl)thiazolidine-2-carbonyloxy)ethyl)pyridine 1-oxide] and `Cc1ccc(S(=O)(=O)N2CCS[C@H]2C(=O)O[C@@H](Cc2c(Cl)c[n+]([O-])cc2Cl)c2ccc(OC(F)F)c(OCC3CC3)c2)cc1Br` [Compound 205, 4-((S)-2-((S)-3-(3-bromo-4-methylphenylsulfonyl)thiazolidine-2-carbonyloxy)-2-(3-(cyclopropylmethoxy)-4-(difluoromethoxy)phenyl)ethyl)-3,5-dichloropyridine 1-oxide] fall in the same range of IC50: 0.1 to 1 nM for the first, 0.1 to 1 nM for the second.

First: Cc1ccc(C#N)c(S(=O)(=O)N2CCS[C@H]2C(=O)O[C@@H](Cc2c(Cl)c[n+]([O-])cc2Cl)c2ccc(OC(F)F)c(OCC3CC3)c2)c1 [Compound 202, 3,5-dichloro-4-((S)-2-((S)-3-(2-cyano-5-methylphenylsulfonyl)thiazolidine-2-carbonyloxy)-2-(3-(cyclopropylmethoxy)-4-(difluoromethoxy)phenyl)ethyl)pyridine 1-oxide]
Second: N#Cc1cc(S(=O)(=O)N2CCS[C@H]2C(=O)O[C@@H](Cc2c(Cl)c[n+]([O-])cc2Cl)c2ccc(OC(F)F)c(OCC3CC3)c2)ccc1F [Compound 209, 3,5-dichloro-4-((S)-2-((S)-3-(3-cyano-4-fluorophenylsulfonyl)thiazolidine-2-carbonyloxy)-2-(3-(cyclopropylmethoxy)-4-(difluoromethoxy)phenyl)ethyl)pyridine 1-oxide]
The IC50 of the first is higher: 0.1 to 1 nM for the first, under 0.1 nM for the second.

`Cc1cc(S(=O)(=O)N2CCS[C@H]2C(=O)O[C@@H](Cc2c(Cl)c[n+]([O-])cc2Cl)c2ccc(OC(F)F)c(OCC3CC3)c2)c(C)s1` [Compound 203, 3,5-dichloro-4-((S)-2-(3-(cyclopropylmethoxy)-4-(difluoromethoxy)phenyl)-2-((S)-3-(2,5-dimethylthiophen-3-ylsulfonyl)thiazolidine-2-carbonyloxy)ethyl)pyridine 1-oxide] and `Cc1cc(S(=O)(=O)N2CCS[C@H]2C(=O)O[C@@H](Cc2c(Cl)c[n+]([O-])cc2Cl)c2ccc(OC(F)F)c(OCC3CC3)c2)c(F)cc1Br` [Compound 204, 4-((S)-2-((S)-3-(4-bromo-2-fluoro-5-methylphenylsulfonyl)thiazolidine-2-carbonyloxy)-2-(3-(cyclopropylmethoxy)-4-(difluoromethoxy)phenyl)ethyl)-3,5-dichloropyridine 1-oxide] fall in the same range of IC50: 0.1 to 1 nM for the first, 0.1 to 1 nM for the second.

First: N#Cc1ccc(S(=O)(=O)N2CCS[C@H]2C(=O)O[C@@H](Cc2c(Cl)c[n+]([O-])cc2Cl)c2ccc(OC(F)F)c(OCC3CC3)c2)cc1 [Compound 206, 3,5-dichloro-4-((S)-2-((S)-3-(4-cyanophenylsulfonyl)thiazolidine-2-carbonyloxy)-2-(3-(cyclopropylmethoxy)-4-(difluoromethoxy)phenyl)ethyl)pyridine 1-oxide]
Second: O=C(O[C@@H](Cc1c(Cl)c[n+]([O-])cc1Cl)c1ccc(OC(F)F)c(OCC2CC2)c1)[C@@H]1SCCN1S(=O)(=O)c1ccc(-n2cccn2)cc1 [Compound 208, 4-((S)-2-((S)-3-(4-(1H-pyrazol-1-yl)phenylsulfonyl)thiazolidine-2-carbonyloxy)-2-(3-(cyclopropylmethoxy)-4-(difluoromethoxy)phenyl)ethyl)-3,5-dichloropyridine 1-oxide]
The IC50 of the first is lower: under 0.1 nM for the first, 0.1 to 1 nM for the second. The first is the more potent here.

`CN1C(=O)Cc2cc(S(=O)(=O)N3CCS[C@H]3C(=O)O[C@@H](Cc3c(Cl)c[n+]([O-])cc3Cl)c3ccc(OC(F)F)c(OCC4CC4)c3)ccc21` [Compound 210, 3,5-dichloro-4-((S)-2-(3-(cyclopropylmethoxy)-4-(difluoromethoxy)phenyl)-2-((S)-3-(1-methyl-2-oxoindolin-5-ylsulfonyl)thiazolidine-2-carbonyloxy)ethyl)pyridine 1-oxide] and `CC(=O)N1CCCc2cc(S(=O)(=O)N3CCS[C@H]3C(=O)O[C@@H](Cc3c(Cl)c[n+]([O-])cc3Cl)c3ccc(OC(F)F)c(OCC4CC4)c3)ccc21` [Compound 220, 4-((S)-2-((S)-3-(1-acetyl-1,2,3,4-tetrahydroquinolin-6-ylsulfonyl)thiazolidine-2-carbonyloxy)-2-(3-(cyclopropylmethoxy)-4-(difluoromethoxy)phenyl)ethyl)-3,5-dichloropyridine 1-oxide] cannot be ordered by IC50: under 0.1 nM for the first, under 0.1 nM for the second.

In the case of `O=C(O[C@@H](Cc1c(Cl)c[n+]([O-])cc1Cl)c1ccc(OC(F)F)c(OCC2CC2)c1)[C@@H]1SCCN1S(=O)(=O)c1ccc(N2CCCC2=O)cc1` [Compound 219, 3,5-dichloro-4-((S)-2-(3-(cyclopropylmethoxy)-4-(difluoromethoxy)phenyl)-2-((S)-3-(4-(2-oxopyrrolidin-1-yl)phenylsulfonyl)thiazolidine-2-carbonyloxy)ethyl)pyridine 1-oxide], the IC50 is reported as under 0.1 nM.
